{"source": "PubChem BioAssay AID686979", "about": "(National Center for Advancing Translational Sciences (NCATS), 2013)", "note": "“And” between values parts separate entries of the source, which are not always exact repeats. Equal entries are not always repeated. The campaign covered roughly 420,000 compounds. About 50,000 (12%) were called active. Inconclusive results, whose numbers are uncertain, are shown with a selection of clear calls. The call rests on the fitted dose curve; in most records, active means well fitted inhibition curve with a large enough effect; inconclusive means small, poorly fitted or top-dose-only effect; inactive means flat fitted curve, though single readings scatter. Where the call is inconclusive, the potency comes from a doubtful curve fit. On the % scale 0 is the no-effect control and ±100 the full control effect; potency means the concentration at half of the fitted maximal effect; tags describe the fitted curve by direction and shape.", "data": [{"experiment": "qHTS for Inhibitors of human tyrosyl-DNA phosphodiesterase 1 (TDP1): qHTS in cells in presence of CPT; further: nearly all actives have a fitted effect of over 55% in size", "conditions": "chicken DT40 Tdp1-/-;hTDP1 cells + 20 nM CPT, ATP luminescence, 48 h; activity change, negative = growth inhibition: at 46.2 µM (top of the series) unless noted", "summary_of_the_method": "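Cell growth measured by CellTiter-Glo luminescence after a minimum 48 h, 37 C compound exposure with 20 nM CPT in Tdp1-knockout DT40 cells stably expressing hTDP1, seeded 400/well; qHTS titration format.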", "values": [{"smiles": "CCn1c(=O)n(CC)c2cc(N3CCCC3)c(NC(=O)c3ccc(F)cc3)cc21", "Potency": "active: 23.1 µM"}, {"smiles": "CSc1ncccc1C(=O)NCC1Cc2cc(-c3cnccn3)cc(Cl)c2O1", "note": "(stereo unspecified)", "Potency": "inconclusive: 29.1 µM [inhibitor, single point]"}, {"smiles": "CCNC(=S)N(Cc1cccs1)Cc1cc2cc(OCC)ccc2[nH]c1=O", "Potency": "inconclusive: 25.9 µM [inhibitor, single point]"}, {"smiles": "Clc1cccc(CN2CCc3c([nH]c4ccccc34)C2)c1", "Potency": "inconclusive: 4.61 µM [inhibitor, single point]"}, {"smiles": "COC(=O)C1=CN(c2cccc(Cl)c2)C=C(C(=O)OC)C1c1cccc(OC)c1", "Potency": "inconclusive: 29.1 µM [inhibitor, single point]"}, {"smiles": "COC(=O)[C@@]12CCCCN1[C@H](c1ccc(-c3ccccc3)cc1)[C@@H]1C(=O)N(C)C(=O)[C@@H]12", "Potency": "active: 20.6 µM"}, {"smiles": "COc1ccccc1CCNC(=O)C(=O)NCCC1CCCCN1S(=O)(=O)c1ccccc1", "note": "(stereo unspecified)", "Potency": "inconclusive: 23.1 µM [inhibitor, single point]"}, {"smiles": "C=CCOc1ccccc1CNc1ccc2c(c1)OCCO2", "Potency": "active: 14.6 µM"}, {"smiles": "O=C(NCc1ccc(Cl)c(Cl)c1)c1cc(C2CCCCN2C(=O)c2cccs2)on1", "note": "(stereo unspecified)", "Potency": "active: 14.6 µM"}, {"smiles": "CC(=O)c1cc(-c2ccccc2)n(CC(=O)N2CCC(C)CC2)c1C", "Potency": "inconclusive: 20.6 µM [inhibitor, single point]"}, {"smiles": "COc1ccccc1CCC(=O)OCC(=O)NC1CC1", "activity change, negative = growth inhibition": "inactive: 15.7%"}, {"smiles": "CC(O)C(NC=C1C(=O)OC(C)(C)OC1=O)C(=O)O", "note": "(stereo unspecified)", "Potency": "inconclusive: 3.66 µM [inhibitor, single point]"}, {"smiles": "CCOC(=O)N1CCC(N2C(=O)c3ccc(C(=O)Nc4ccc(OC)c(OC)c4)cc3C2=O)CC1", "activity change, negative = growth inhibition": "inactive: -6.29%"}, {"smiles": "C=CC[C@@H](CC(=O)N[C@H](CO)Cc1ccccc1)C(=O)N[C@H](COC(=O)[C@@H](CC=C)Cc1ccc(F)cc1)Cc1ccccc1", "Potency": "active: 23.1 µM"}, {"smiles": "COc1ccc(S(=O)(=O)N2CCCC2CNC(=O)C(=O)NCCc2ccccc2)cc1", "note": "(stereo unspecified)", "Potency": "active: 7.31 µM"}, {"smiles": "S=C(NN=C(c1ccccc1)c1ccccn1)N(Cc1ccccn1)Cc1ccccn1", "Potency": "active: 0.146 µM"}, {"smiles": "CCOCCCNC(=O)C1CCN(S(=O)(=O)c2c(C)noc2/C=C\\c2ccc(OC)cc2)CC1", "activity change, negative = growth inhibition": "inactive: -10.9%"}, {"smiles": "CC(C)n1nnnc1C1c2ccccc2C(=O)N1CCOc1ccccc1", "note": "(stereo unspecified)", "activity change, negative = growth inhibition": "inactive: -5.17%"}, {"smiles": "CC(=O)N1CCc2cc(S(=O)(=O)NCc3ccc(C)cc3)ccc21", "Potency": "inconclusive: 20.6 µM [inhibitor, single point]"}, {"smiles": "CCCCC(=O)N1CCN(c2nc3ccc(F)cc3s2)CC1", "Potency": "inconclusive: 25.9 µM [inhibitor, single point]"}, {"smiles": "O=C(N/N=C\\c1ccc(-c2ccccc2[N+](=O)[O-])o1)C1COc2cc3ccccc3cc2O1", "note": "(stereo unspecified)", "Potency": "inconclusive: 16.4 µM [inhibitor, single point]"}, {"smiles": "Brc1ccccc1-n1nnc(-c2cnc3ccccc3c2)n1", "Potency": "inconclusive: 16.4 µM [inhibitor, single point]"}, {"smiles": "COc1ccccc1Oc1ccnc2cc(Cl)ccc12", "Potency": "inconclusive: 32.6 µM [inhibitor, single point]"}, {"smiles": "Oc1ccccc1C=NN=CC=Cc1ccccc1", "Potency": "inconclusive: 29.1 µM [inhibitor, single point]"}, {"smiles": "COc1ccc(NC(=O)C23CC4CC(CC(Cl)(C4)C2)C3)cc1S(=O)(=O)N1CCOCC1", "activity change, negative = growth inhibition": "inactive: -22.5%"}, {"smiles": "O=C(Oc1ccccc1)N1CCC2(CCCN(c3cccc(-c4ccccc4)c3)C2)CC1", "activity change, negative = growth inhibition": "inactive: -29.6%"}, {"smiles": "O=C(C1CCN(S(=O)(=O)c2ccccc2)CC1)N1CCCCC1", "activity change, negative = growth inhibition": "inactive: 7.13%"}, {"smiles": "Cc1oc2cc3oc(=O)c(CC(=O)N4CCCCC4)c(C)c3cc2c1C", "Potency": "inconclusive: 29.1 µM [inhibitor, single point]"}, {"smiles": "COc1cc(OC)c2cc(C(=O)N/N=C/c3ccccc3O)[nH]c2c1", "Potency": "active: 4.61 µM"}, {"smiles": "CC(C)Cn1c(N)c(C(=O)COC(=O)CN2C(=O)C3CC=CCC3C2=O)c(=O)n(C)c1=O", "note": "(stereo unspecified)", "Potency": "active: 16.4 µM"}, {"smiles": "Nc1c(Cl)cc(-c2csc(N3CCCC3c3nc4cc(Cl)c(Cl)cc4n3CCOCCO)n2)cc1Cl", "note": "(stereo unspecified)", "Potency": "inconclusive: 29.1 µM [inhibitor, single point]"}, {"smiles": "O=C(Nc1ccc(F)cc1)C1CCN(S(=O)(=O)c2cccs2)CC1", "Potency": "inconclusive: 18.4 µM [inhibitor, single point]"}, {"smiles": "Cc1cccc(NC(=O)Cc2c(F)cccc2Cl)n1", "activity change, negative = growth inhibition": "inactive: 0.106%"}, {"smiles": "CCCc1ccc(S(=O)(=O)N2CCC(c3nnnn3-c3ccc(OC)cc3)CC2)cc1", "activity change, negative = growth inhibition": "inactive: -29.1%"}, {"smiles": "COC(=O)CCC(=O)OC1(C)C(=O)C=C2C=C(C3CC3)N(C(CO)CO)C=C2C1=O", "note": "(stereo unspecified)", "activity change, negative = growth inhibition": "inactive: 4.46%"}, {"smiles": "CCOc1cc(C#N)c(NC(=O)c2ccc(OC)c(S(=O)(=O)N3CCN(c4ccccc4)CC3)c2)cc1OCC", "Potency": "inconclusive: 8.2 µM [inhibitor, partial curve]"}, {"smiles": "COc1ccc(-n2nc3cc(C)c(N)c(Br)c3n2)cc1", "Potency": "inconclusive: 29.1 µM [inhibitor, single point]"}, {"smiles": "N#Cc1nc(N)nc(N(c2ccccc2)c2ccccc2)n1", "Potency": "inconclusive: 25.1 µM [inhibitor, single point] and inconclusive: 29.1 µM [inhibitor, single point]"}, {"smiles": "Cc1ccc(C)n1-c1sc2c(c1C(=O)O)CCCC2", "Potency": "inconclusive: 23.1 µM [inhibitor, single point]"}, {"smiles": "N#CC1=C2SCN(C3CCCCC3)CN2C(=O)CC1c1ccc(Br)cc1", "note": "(stereo unspecified)", "Potency": "inconclusive: 10.3 µM [inhibitor, single point]"}, {"smiles": "CCc1nnc(NC(=O)Cc2ccc(OC)cc2)s1", "activity change, negative = growth inhibition": "inactive: 11.4%"}, {"smiles": "CC(C)N(C)C(=O)CCc1nnc(CCc2c[nH]c3ccccc23)o1", "activity change, negative = growth inhibition": "inactive: -6.4%"}, {"smiles": "CCc1ccccc1NC(=S)N(CCCN(C)C)Cc1cc2cc3c(cc2[nH]c1=O)OCO3", "activity change, negative = growth inhibition": "inactive: 0.384%"}, {"smiles": "CN(C)C(=O)OC1=C(c2ccccc2)Sc2ccccc2-n2cccc21", "Potency": "inconclusive: 16.4 µM [inhibitor, single point]"}, {"smiles": "COC(=O)C1=C(C)N=c2s/c(=C/c3cccs3)c(=O)n2C1c1cccs1", "note": "(stereo unspecified)", "activity change, negative = growth inhibition": "inactive: -24.5%"}, {"smiles": "CC[C@]12c3[nH]c4cc(CCC(=O)N(C)C)ccc4c3CCN1C(=O)[C@@H](CC(=O)NCC13CC4CC(CC(C4)C1)C3)C[C@@H]2C(=O)N1CCN(C(=O)C2CC2)CC1", "Potency": "inconclusive: 18.4 µM [inhibitor, single point]"}, {"smiles": "O=C(NC1CCCCC1)C(c1ccccc1)N(Cc1ccc2c(c1)OCO2)C(=O)c1cnsn1", "note": "(stereo unspecified)", "Potency": "active: 20.6 µM"}, {"smiles": "C#Cc1cccc(C(=O)N2CCCC(Nc3cccc(F)c3)C2)c1", "note": "(stereo unspecified)", "activity change, negative = growth inhibition": "inactive: -10.4%"}, {"smiles": "CC(C)(C)CC(=O)NC(=S)NCc1ccccc1", "Potency": "inconclusive: 29.1 µM [inhibitor, single point]"}, {"smiles": "CCOc1ccc(OCC(=O)Nc2cc(Cl)ccc2-n2cncn2)cc1", "Potency": "inconclusive: 29.1 µM [inhibitor, single point]"}, {"smiles": "CCCOc1ccc(CNC(=O)c2oc3ccc4c(c3c2C)C(=O)CC(C)(CC)O4)cc1", "note": "(stereo unspecified)", "Potency": "active: 16.4 µM"}, {"smiles": "CC(CNC(=O)CCC(=O)N1CCOc2ccc(Cl)cc21)c1ccccc1", "note": "(stereo unspecified)", "Potency": "inconclusive: 16.4 µM [inhibitor, partial curve, poor fit]"}, {"smiles": "COc1ccc(CCNC(=O)C2CCCN(S(C)(=O)=O)C2)cc1", "note": "(stereo unspecified)", "activity change, negative = growth inhibition": "inactive: 0.0818%"}, {"smiles": "Cc1ccc(OCC(=O)N2N=C(c3ccc(Cl)cc3)CC2c2ccco2)c([N+](=O)[O-])n1", "note": "(stereo unspecified)", "Potency": "inconclusive: 1.16 µM [inhibitor, full curve, poor fit]"}, {"smiles": "CCOC(=O)c1c(NC(=O)CCC(=O)O)sc2c1CCCCC2", "Potency": "inconclusive: 16.4 µM [inhibitor, single point]"}, {"smiles": "CCc1cc2c3c(c1)C(C)CC(C)(C)N3C(=O)C2=O", "note": "(stereo unspecified)", "Potency": "inconclusive: 29.1 µM [inhibitor, single point]"}, {"smiles": "O=C(NCc1ccncc1)c1ccc(Br)cc1", "activity change, negative = growth inhibition": "inactive: -19.6%"}, {"smiles": "COc1ccc2nc3oc(C(=O)N4CC(C)CC(C)C4)cc3cc2c1", "note": "(stereo unspecified)", "Potency": "inconclusive: 29.1 µM [inhibitor, single point]"}, {"smiles": "Fc1ccc(-c2cnc(-c3cccs3)o2)cc1", "activity change, negative = growth inhibition": "inactive: -19.1%"}, {"smiles": "COc1ccccc1C/C(N)=N/OC(=O)c1ccc2c(c1)OCO2", "Potency": "inconclusive: 29.1 µM [inhibitor, single point]"}, {"smiles": "CN1CCOC(c2ccccc2)c2ccccc2C1", "note": "(stereo unspecified)", "Potency": "inconclusive: 18.4 µM [inhibitor, single point]"}, {"smiles": "COc1cccc(/C=N\\NC(=O)C2C(=O)NCC2c2ccccc2)c1O", "note": "(stereo unspecified)", "Potency": "inconclusive: 29.1 µM [inhibitor, single point]"}, {"smiles": "Cc1oc(-c2ccc3c(c2)OCCO3)cc1C(=O)O", "Potency": "inconclusive: 18.4 µM [inhibitor, single point]"}, {"smiles": "Cc1ccc(NCCC(=O)c2ccccc2)cc1Cl", "Potency": "active: 10.3 µM"}, {"smiles": "Cn1nccc1C(=O)N1CCCC(C(=O)c2ccc(C(F)(F)F)cc2)C1", "note": "(stereo unspecified)", "Potency": "inconclusive: 25.9 µM [inhibitor, single point]"}, {"smiles": "Cc1cc(NC(=O)CCC(=O)N(CC(=O)NC2CCCC2)Cc2ccc3c(c2)OCO3)no1", "Potency": "inconclusive: 11.6 µM [inhibitor, single point]"}, {"smiles": "CCc1nnc2c(N3CCN(c4cccc(C(F)(F)F)c4)CC3)nc3ccccc3n12", "Potency": "active: 20.6 µM"}, {"smiles": "Cc1ccc(-c2noc(CNC(=O)COc3ccccc3C)n2)cc1", "activity change, negative = growth inhibition": "inactive: -13.8%"}, {"smiles": "CCc1cc(-c2n[nH]c(C)c2-c2ccccc2Cl)c(O)cc1OC", "Potency": "inconclusive: 32.6 µM [inhibitor, single point]"}, {"smiles": "NC(=O)CSc1oc(-c2ccco2)nc1S(=O)(=O)c1ccccc1", "activity change, negative = growth inhibition": "inactive: 0.98%"}, {"smiles": "C[C@@H]1CC=C[C@H]2[C@H]1C(=O)N(Cc1ccccc1)[C@H]2c1ccc(C(F)(F)F)cc1", "Potency": "inconclusive: 23.1 µM [inhibitor, single point]"}]}]}
